Test results taken from PubChem BioAssay AID651820 (National Center for Advancing Translational Sciences (NCATS), 2012).
Where “and” joins values, the source holds several entries; their conditions need not be identical. Identical values can stand only once. About 12,000 (3.5%) of roughly 340,000 compounds were called active. The shares of active, inactive and inconclusive entries below differ from those in the screen. Calls follow the shape of the dose curve; as a rule, active = well fitted inhibition curve with a large enough effect; inconclusive = small, poorly fitted or top-dose-only effect, or another doubt; inactive = no such curve, though single readings can be large or run the other way. A potency beside an inconclusive call is a rough fit, not a confirmed value.
% is scaled to controls: 0 for no effect and ±100 for the full control effect; potency is read from the fitted curve at half-maximal effect; tags tell the direction and shape of the fitted curve.

Assay: qHTS Assay for Inhibitors of Hepatitis C Virus (HCV)
Conditions: Huh7.5.1 HCVcc-Cre (HCVcc is cell-culture hepatitis C virus) infection, luciferase reporter, 44 h; activity change, negative = inhibition: at 41.8 µM (top of the series) unless noted
Procedure, shortened: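 1,000 cells/well; 4 h culture; + compound; + HCVcc-Cre (~0.5 moi); 44 h; luciferase substrate, RT 15 min; read 15 sec.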
In the case of `COC(=O)C1=C(c2ccc(F)cc2OCc2ccccc2)C[C@@H]2CC[C@H]1N2C(=O)NCCOc1ccccc1Cl`, the Potency is reported as inconclusive: 11.2 µM [inhibitor, partial curve]. With `O=C(CC1(O)C(=O)Nc2ccccc21)c1ccc(-n2cnnn2)cc1` (stereo not given) the Potency was “inactive”. For `CCCc1ccc(OCC(=O)Nc2cc(S(=O)(=O)CC)ccc2O)cc1`, the Potency was “inactive”. With `COc1cc(C2C(C(=O)/C=C/c3ccccc3)=C(O)C(=O)N2c2ccccn2)ccc1O` (stereo not given) the Potency was “inactive”. For `Cc1cc(C)c2sc(NC(=O)C3CC3)nc2c1`, the Potency was “inactive”. With `Cn1c(=O)c(Sc2ccc(Cl)cc2)c(O)c2ccccc21` the Potency was “inactive”. For `Cc1c(C(=O)NCc2ccccn2)sc2nc(-c3ccccc3)cn12`, the Potency was inconclusive: 31.6 µM [inhibitor, single point]. With `COc1cccc(CNc2nccs2)c1O` the Potency was “inactive”. In the case of `CCN(C(=O)COC(=O)CCC(=O)c1cccs1)c1c(N)n(Cc2ccccc2)c(=O)[nH]c1=O`, the activity change, negative = inhibition is reported as inactive: 9.74% [at 8.37 µM]. In the case of `Cc1ccc(C)c(CN2CCC(CNC(=O)CCc3nnc4ccc(N5CCCCC5)nn34)CC2)c1`, the Potency is reported as inconclusive: 25.1 µM [inhibitor, single point]. With `COc1ccccc1OCCCCCCN1CCN(C)CC1` the Potency was “inactive”. With `CCOc1ccc(CC(=O)NCC2(N3CCCCC3)CCCCC2)cc1` the Potency was “inactive”. For `CCC(C)NCC(O)(c1ccc(Cl)cc1)c1ccc(Cl)cc1` (stereo not given), the Potency was “inactive”. With `CCSc1nc(N)c(C#N)c(-c2ccccc2Cl)c1C#N` the Potency was “inactive”. For `COc1cc(C)c(C)cc1S(=O)(=O)N1CCCCC1c1cccnc1` (stereo not given), the Potency was inconclusive: 14.1 µM [inhibitor, single point]. For `CCOc1ncccc1C(=O)Nc1ccc(-c2ccc3nnc(C)n3n2)cc1`, the Potency was inconclusive: 1.78 µM [inhibitor, partial curve]. In the case of `Cc1ccc(-c2nnn(CC(=O)Nc3ccc(S(=O)(=O)N4CCC(C)CC4)cc3)n2)cc1`, the Potency is reported as inconclusive: 5.62 µM [inhibitor, partial curve]. For `COc1ccc(F)cc1S(=O)(=O)NCC(=O)NCc1cc(=O)n(C)c(=O)n1C`, the Potency was “inactive”. For `Cc1ccc(C)c(OCc2cc(C(=O)NC3CCN(Cc4ccccc4)CC3)no2)c1`, the Potency was active: 6.31 µM. With `CC[C@]12C(=O)N(C)C[C@H]([C@@H]3C(=O)N(Cc4ccccc4)C(=O)[C@@H]31)N2C(=O)c1ccc(C(F)(F)F)cc1` the Potency was “inactive”. In the case of `CCC(C)NC(=O)c1cn(CC)c2cc(N3CCN(C)CC3)c(F)cc2c1=O` (stereo not given), the Potency is reported as inconclusive: 22.4 µM [inhibitor, single point]. In the case of `CCOC(CNc1ncnc2sc(-c3ccccc3)cc12)OCC`, the Potency is reported as inconclusive: 28.2 µM [inhibitor, single point]. In the case of `CCN(C(=O)c1cccnc1SC)C12CC3CC(CC(C3)C1)C2`, the Potency is reported as inconclusive: 31.6 µM [inhibitor, single point]. With `O=c1c2ccccc2nc(/C=C/c2cccc(Br)c2)n1CCCO` the Potency was inconclusive: 31.6 µM [inhibitor, single point]. For `CN(C)S(=O)(=O)c1cccc(NC(=O)c2ccc3c(c2)OCCO3)c1`, the Potency was inconclusive: 10 µM [inhibitor, partial curve]. For `CC(C)C[C@H](NC(=O)C1CC(=O)N(c2ccc3c(c2)OCCO3)C1)C(=O)NC1CCCC1` (stereo not given in full), the Potency was inconclusive: 31.6 µM [inhibitor, single point]. For `COc1ccc(/C=C/CN2CCC(CO)(Cc3ccccc3Cl)CC2)cc1`, the Potency was inconclusive: 31.6 µM [inhibitor, single point]. With `O=C(CSc1nc(=O)n2ccccc2n1)NCc1ccc2c(c1)OCO2` the Potency was inconclusive: 22.4 µM [inhibitor, single point]. For `O=C(CSc1nc2c(sc3ccccc32)c(=O)n1CCCN1CCCC1)NCc1ccco1`, the Potency was inconclusive: 31.6 µM [inhibitor, single point]. For `Cc1cc(C)c2nc(N(CCCN(C)C)C(=O)C3=COCCO3)sc2c1`, the Potency was active: 31.6 µM. For `CCOC(=O)CSc1nnc(NC(=O)CN2CCCCC2)s1`, the Potency was “inactive”. With `CC(C)(C)SCCNC(=O)c1ccc(NS(C)(=O)=O)cc1` the Potency was “inactive”. In the case of `O=C1CC(SC(=Nc2ccccc2)Nc2ccccc2)C(=O)N1c1cccc(Cl)c1` (stereo not given), the Potency is reported as inconclusive: 11.2 µM [inhibitor, single point]. For `Cc1cc(=O)oc2cc(OCC(=O)N/N=C/c3cc([N+](=O)[O-])ccc3O)ccc12`, the Potency was “inactive”. With `COc1ccc(OC)c(NS(=O)(=O)c2ccc(NC(=O)c3ccc(NS(C)(=O)=O)cc3)cc2)c1` the Potency was inconclusive: 0.501 µM [inhibitor, full curve, poor fit]. In the case of `O=C1C(Oc2ccc(Cl)cc2)C(c2ccc3c(c2)OCO3)N1CC1CCCO1` (stereo not given), the Potency is reported as inconclusive: 31.6 µM [inhibitor, single point]. With `O=C(CN1CCN(S(=O)(=O)c2ccc3ccccc3c2)CC1)N1CCc2ccccc2C1` the Potency was inconclusive: 11.2 µM [inhibitor, partial curve, poor fit]. In the case of `Cc1cc(Cl)cc(C)c1OCCCCCn1ccnc1`, the Potency is reported as inconclusive: 11.2 µM [inhibitor, single point]. For `Cc1c(C=O)c(=O)n(-c2ccccc2)n1C`, the Potency was “inactive”. In the case of `CC(C)(C)NC(=O)[C@@H]1C[C@@H]2CCCC[C@@H]2CN1C[C@@H](O)[C@H](Cc1ccccc1)NC(=O)[C@H](CC(N)=O)NC(=O)c1ccc2ccccc2n1`, the Potency is reported as inconclusive: 14.1 µM [inhibitor, single point]. For `COc1ccc(N(C)S(=O)(=O)c2cccc(C(=O)NC3CCCC3)c2)cc1`, the Potency was inconclusive: 2.24 µM [inhibitor, single point]. In the case of `CCN(CC)S(=O)(=O)c1cc(C(=O)Oc2cccc(-c3cnc4ccccc4n3)c2)ccc1OC`, the Potency is reported as inconclusive: 31.6 µM [inhibitor, single point]. For `Clc1cccc(CN2COc3c(cc(Cl)c4cccnc34)C2)c1`, the Potency was inconclusive: 4.47 µM [inhibitor, partial curve]. For `COc1cccc(C(=O)Nc2cc(NC(=O)c3cccs3)ccc2C)c1OC`, the Potency was active: 10 µM. In the case of `CCOC(=O)Cn1c(S(=O)(=O)Cc2ccc(F)cc2)nc(-c2ccccc2)c1-c1ccccc1`, the Potency is reported as inconclusive: 10 µM [inhibitor, partial curve]. With `COc1ccc(C(=O)NCCNc2nc3ccc(C)cc3cc2C#N)cc1` the Potency was inconclusive: 10 µM [inhibitor, partial curve]. With `Cc1cc2oc(=O)cc(CN3CCCCC3)c2cc1C` the Potency was “inactive”. For `COc1ccc(S(=O)(=O)NCC(c2cccs2)N2CCc3ccccc3C2)cc1` (stereo not given), the Potency was “inactive”. With `CC(C)c1ccc2[nH]c(O)c(N=NC(=O)c3cccc(S(=O)(=O)N4CCCCC4)c3)c2c1` the Potency was active: 11.2 µM. For `CNC(=O)c1[nH]cnc1C(=O)N[C@@H](CCCCNC(=O)OC(C)(C)C)C(=O)OC(C)(C)C`, the Potency was “inactive”. For `O=C(NCCCN1CCOCC1)c1ccc2c(c1)N(Cc1c(F)cccc1Cl)C(=O)c1ccccc1S2`, the Potency was inconclusive: 12.6 µM [inhibitor, single point]. With `Cc1ccc(C)n1-c1ccc(N2CCOCC2)cc1` the Potency was inconclusive: 31.6 µM [inhibitor, single point]. With `Cc1ccc(CN(Cc2ccccc2)C(=S)NCC(=O)N2CCC3(CC2)OCCO3)o1` the Potency was inconclusive: 31.6 µM [inhibitor, single point]. For `Cc1cc(NC(=O)c2cc(-c3ccc(O)cc3)on2)no1`, the Potency was “inactive”. With `CCc1noc(C)c1C(=O)Oc1ccc(N(C)S(=O)(=O)c2ccc(C)c(C)c2)cc1` the Potency was inconclusive: 2.51 µM [inhibitor, full curve]. In the case of `COc1ccc(/C=C/c2nc(-c3ccccc3)cc(=O)[nH]2)cc1`, the Potency is reported as “inactive”. In the case of `CCOc1ccc(Nc2nc3c(c(=O)[nH]2)CCCC3)cc1`, the Potency is reported as “inactive”. With `COc1ccc2c(c1)c(C(O)CN1CCC(Cc3ccccc3)CC1)c(C)n2C` (stereo not given) the Potency was inconclusive: 3.55 µM [inhibitor, partial curve]. With `CCCCNC(=S)N1CCn2cccc2C1c1ccc(F)cc1` (stereo not given) the Potency was “inactive”. With `Cc1ccccc1OCCCCCCN1CCNCC1` the Potency was inconclusive: 3.16 µM [inhibitor, partial curve]. With `Cc1cnc(CN2CCCC(C(=O)c3ccc4c5c(cccc35)CC4)C2)[nH]1` (stereo not given) the Potency was inconclusive: 12.6 µM [inhibitor, single point]. For `COc1ccc(N2CCC(CNS(=O)(=O)c3cccc(C(F)(F)F)c3)C2)cc1` (stereo not given), the Potency was inconclusive: 12.6 µM [inhibitor, partial curve] and inconclusive: 2.24 µM [inhibitor, full curve]. In the case of `[O-]/C(=C(\C(=S)Nc1cccc2ccccc12)[n+]1ccccc1)c1ccc2c(c1)OCCO2`, the Potency is reported as “inactive”. For `Cc1cc(Cl)c(OCCOCCN2CCN(C)CC2)c(Br)c1`, the Potency was inconclusive: 10 µM [inhibitor, single point]. For `COc1cc(NC(=S)NC(=O)c2ccc(F)cc2)ccc1NC(=O)c1ccco1`, the Potency was inconclusive: 5.62 µM [inhibitor, partial curve]. With `CC(C)n1ncc2c(C(=O)NCc3ccccc3CN(C)C)cc(C3CC3)nc21` the Potency was inconclusive: 7.08 µM [inhibitor, partial curve]. With `O=C(CN1CCSC1=O)N1CCN(S(=O)(=O)c2ccccc2)CC1` the Potency was “inactive”. For `CCc1ccccc1NC(=S)N(Cc1cccnc1)Cc1ccco1`, the Potency was “inactive”. For `COc1ccc(NS(=O)(=O)c2cccc(C(=O)NCc3ccccc3CN3CCOCC3)c2)cc1`, the Potency was inconclusive: 22.4 µM [inhibitor, single point]. In the case of `CCc1nc(Sc2nnnn2-c2ccccc2)c2c3c(sc2n1)CCCC3`, the Potency is reported as inconclusive: 0.501 µM [inhibitor, full curve, poor fit].
